# According to PubChem BioAssay (NCI):
#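 Following 48 hours of exposure in 96-well plates, responses at five concentrations were used to interpolate endpoints linearly. At the GI50, growth is halved. Definition used: TGI = concentration required for complete inhibition of growth.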
# System: NCI-H322M lung
# Assay: inhibition of tumour cell growth, NCI panel, 48 h
SMILES,TGI,GI50
CC1OC(O[C@@H]2OC=C(C=O)[C@@]3(O)CC[C@H](C)[C@@H]23)C(O)C(O)C1O (stereo not given in full),> 100 µM,–
O=C1/C(=C\c2c[nH]c3ccccc23)c2ccccc2N1c1c(Cl)cccc1Cl,6.01 µM,2.01 µM
O=C(NCCCCCCNC(=O)n1cc(F)c(=O)[nH]c1=O)NCCCOCCOCCOCCOCCOCCOCCOCCOCCOCCOCCOCCOCCOCCOCCOCCOCCOCCOCCOCCOCCOCCCNC(=O)C(O)C(O)C(O)C(O)CO (stereo not given),> 100 µM,–
O=C1c2cccnc2C(=O)c2nc3cc(N4CCN(C5CC5)CC4)ccc3nc21,1.04 µM,0.285 µM
CCCNC1=C(C(=O)OCC)C(=O)CO1,> 100 µM,–
CCS(=O)(=O)Nc1ccc(Nc2c3ccccc3nc3ccccc23)c(OC)c1,17 µM,–
CC[C@@H](C(=O)O)C1CC[C@H](C)C([C@@H](C)[C@H](O)[C@H](C)C(=O)[C@H](CC)C2O[C@]3(C=C[C@@H](O)[C@]4(CC[C@@](C)(C5CC[C@](O)(CC)[C@H](C)O5)O4)O3)[C@H](C)C[C@@H]2C)O1 (stereo not given in full),14.4 µM,1.99 µM
CCC1NC(=O)C1NC(=O)OC (stereo not given),> 100 µM,–
CC(CCC(=O)O)[C@H]1CCC2[C@@H]3CC[C@@H]4CC(O)CC[C@]4(C)C3CC[C@@]21C (stereo not given in full),> 100 µM,58.8 µM
CCN(CC)CCCNc1nc(=O)[nH]c(C)c1C(=O)Nc1cccc2cc3ccccc3cc12,> 100 µM,–
Cc1csc(=S)n1OC(=O)NC1CCCCC1,> 100 µM,–
CC(C)[C@H]1CO[C@]2(C)[C@@H]3CN(Cc4ccccc4)C[C@@H]3C(=O)N12,> 100 µM,–
COc1cccc(-n2ncc3c(N/N=C/c4ccc(C(=O)NCCN(C)C)cc4)ncnc32)c1,8.16 µM,3.49 µM
C[C@@H]1C[C@H]2CC[C@H](O2)[C@H](C)C(=O)O[C@@H](C)C[C@@H]2CC[C@@H](O2)[C@@H](C)C(=O)O[C@H](C)C[C@H]2CC[C@H](O2)[C@H](C)C(=O)O[C@@H](C)C[C@@H]2CC[C@@H](O2)[C@@H](C)C(=O)O1,> 30.6 µM,–
Cc1cccc2nc3c(C(=O)NCCN(C)C)cccc3cc12,4.66 µM,–
COc1cc(C2C(C(=O)O)=C(CO)Oc3cc4c(cc32)OCO4)cc(OC)c1O (stereo not given),> 100 µM,–

SMILES,TGI,GI50
S=c1sc2c(s1)SCCCCSCCCCSc1sc(=S)sc1SCCCCSCCCCS2,> 100 µM,–
Nc1nc2c(c3ncncc13)C(c1cccc(C(F)(F)F)c1)Cc1ncncc1-2 (stereo not given),57.8 µM,5.56 µM
COc1ccc(OC)c(/C=C2\SC(=S)NC2=O)c1,92.7 µM,36.3 µM
COc1cc(/C=C/C(=O)c2ccc(NS(=O)(=O)c3cc([N+](=O)[O-])ccc3C)cc2)cc(OC)c1OC,16.3 µM,–
COc1ccc(/C=C(/C#N)C(N)=O)cc1OC,> 100 µM,–
COc1ccc(/C=C2\C(=O)N(C3OC(COC(C)=O)C(OC(C)=O)C(OC(C)=O)C3OC(C)=O)c3ccccc3N=C2N)cc1 (stereo not given),> 100 µM,–
CCN(CC)CCC(=O)c1ccc(Oc2ccc(Cl)cc2)cc1,31.5 µM,–
O=c1cc(-c2ccccc2)[nH]c2ccccc12,> 100 µM,–
COc1ccc(-c2nc3sc4c(c3c(=O)[nH]2)CCCCCC4)cc1,> 33.2 µM,> 33.2 µM
CC(NNC(=O)c1ccncc1)c1ccc(F)cc1 (stereo not given),> 100 µM,–
CN(CC1(CO)CCC1)c1cc(Cl)nc(N)n1,> 100 µM,–
Nc1ccn(CCNCCn2cnc3nc(N)[nH]c(=O)c32)c(=O)n1,> 100 µM,–
CC(=O)N1C(=O)/C(=C\C(=O)c2ccc([N+](=O)[O-])cc2)c2ccccc21,> 100 µM,–
CC1=Nc2ccccc2S/C1=C(/C)NNC(=O)C(N)=O,> 100 µM,–
Cc1ccc(N=Cc2ccc3c(c2)OCO3)cc1C,> 100 µM,–
N=c1c2c(C(N)=O)cn(C3OC(CO)C(O)C3O)c2ncn1O (stereo not given),0.933 µM,–
